Assay results as given in the supplement of paper PMC6531468.
The list shows a part of the results. These are enrichments in a pooled selection; single values are uncertain. Each score is taken over the longer molecules that contain the sequence shown.

Test system: IMP3 KH1-4
Experiment: 6-mer SELEX enrichment z-score vs GST control; IMP3 is the RNA-binding protein IGF2BP3; higher = more enriched by binding
Conditions: construct: KH1-4 (164-579); SELEX round: R4
Method: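 SELEX-seq with GST-tagged IMP3 KH1-4 (Pro164-Lys579) and an N40 RNA pool, round 4. 6-mer z-score of sequence-tag enrichment normalised to the corresponding GST SELEX round; RNA k-mers written as DNA (T for U).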

Sequence of IMP3 KH1-4 (chain, as listed by the source): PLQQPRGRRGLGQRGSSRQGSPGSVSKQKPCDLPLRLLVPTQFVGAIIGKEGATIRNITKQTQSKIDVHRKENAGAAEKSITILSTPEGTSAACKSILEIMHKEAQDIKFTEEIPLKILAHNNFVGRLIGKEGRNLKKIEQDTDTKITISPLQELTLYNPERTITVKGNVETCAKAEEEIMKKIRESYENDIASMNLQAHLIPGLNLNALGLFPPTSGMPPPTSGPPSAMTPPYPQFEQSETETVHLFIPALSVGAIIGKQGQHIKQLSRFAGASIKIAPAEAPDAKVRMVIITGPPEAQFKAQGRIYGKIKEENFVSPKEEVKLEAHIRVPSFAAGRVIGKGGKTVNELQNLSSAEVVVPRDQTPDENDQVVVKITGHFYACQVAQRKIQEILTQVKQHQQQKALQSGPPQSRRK

Sequence	6-mer SELEX enrichment z-score
TATGGT	0.337
GCGCAG	-0.888
CTCATT	0.687
AAAATC	-0.553
CTGACA	0.083
CTTTAG	0.093
TCCCAC	-0.717
CTAGTG	-0.329
TACCGC	0.044
AGTTTG	-0.169
ACAGAA	1.12
CGAAGA	-0.824
AGTAGT	-0.194
ATAATT	1.86
TTACAA	1.14
GTTCAG	0.137
ATTGGG	-0.088
TCATCC	0.45
GCATGA	0.767
CAATTT	1.05

Sequence	6-mer SELEX enrichment z-score
GGGTGG	0.478
ATTTCT	0.934
CACCGA	-1.5
CCTTTT	0.709
GCAAGG	0.317
CTTTAT	1.13
GGTAGG	0.206
GATATG	1.15
AATAAG	0.894
GATCAA	0.142
GGGCTA	-0.178
GGTATA	0.055
AAAGAA	0.392
ATAGCG	-0.597
ACGTCA	-0.86
GAAATG	0.478
TGCGTC	-0.369
TGTTGG	-0.041
TGTAAG	0.278
CGAGTC	-1.07

Test system: IMP3 RRM1-2
Experiment: as above
Conditions: construct: RRM1-2 (1-163); SELEX round: R2
Method: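 SELEX-seq with GST-tagged IMP3 RRM1-2 (Met1-Asn163) and an N40 RNA pool, round 2. 6-mer enrichment z-score normalised to GST SELEX. RNA written as DNA (T = U).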

Sequence of IMP3 RRM1-2 (chain, as listed by the source): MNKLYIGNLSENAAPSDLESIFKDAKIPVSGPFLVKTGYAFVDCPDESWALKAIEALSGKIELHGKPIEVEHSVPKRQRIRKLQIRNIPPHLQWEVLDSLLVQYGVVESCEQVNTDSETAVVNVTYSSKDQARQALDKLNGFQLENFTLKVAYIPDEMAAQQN

Sequence	6-mer SELEX enrichment z-score
TATGGT	0.393
GCGCAG	0.136
CTCATT	1.18
AAAATC	-0.801
CTGACA	-0.133
CTTTAG	0.216
TCCCAC	-0.099
CTAGTG	0.012
TACCGC	-0.315
AGTTTG	0.227
ACAGAA	-0.022
CGAAGA	-1.71
AGTAGT	0.251
ATAATT	-0.014
TTACAA	0.402
GTTCAG	0.426
ATTGGG	0.264
TCATCC	0.866
GCATGA	0.414
CAATTT	0.272

Sequence	6-mer SELEX enrichment z-score
GGGTGG	0.276
ATTTCT	0.426
CACCGA	-0.615
CCTTTT	0.117
GCAAGG	-0.103
CTTTAT	0.252
GGTAGG	0.289
GATATG	-0.401
AATAAG	-0.957
GATCAA	0.524
GGGCTA	0.217
GGTATA	0.108
AAAGAA	-2.73
ATAGCG	0.001
ACGTCA	0.174
GAAATG	-1.53
TGCGTC	0.569
TGTTGG	0.42
TGTAAG	-0.165
CGAGTC	-0.341

Target: IMP3 full-length (UniProt O00425)
Experiment: as above
Conditions: construct: FL IMP3 (1-579); SELEX round: R4
Method: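 SELEX-seq with GST-tagged full-length IMP3 and an N40 RNA pool, round 4. Each 6-mer is scored as an enrichment z-score of sequence tags containing it, normalised to the matching GST SELEX round. RNA written as DNA (T = U).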

Sequence of UniProt O00425 (O00425 whole entry): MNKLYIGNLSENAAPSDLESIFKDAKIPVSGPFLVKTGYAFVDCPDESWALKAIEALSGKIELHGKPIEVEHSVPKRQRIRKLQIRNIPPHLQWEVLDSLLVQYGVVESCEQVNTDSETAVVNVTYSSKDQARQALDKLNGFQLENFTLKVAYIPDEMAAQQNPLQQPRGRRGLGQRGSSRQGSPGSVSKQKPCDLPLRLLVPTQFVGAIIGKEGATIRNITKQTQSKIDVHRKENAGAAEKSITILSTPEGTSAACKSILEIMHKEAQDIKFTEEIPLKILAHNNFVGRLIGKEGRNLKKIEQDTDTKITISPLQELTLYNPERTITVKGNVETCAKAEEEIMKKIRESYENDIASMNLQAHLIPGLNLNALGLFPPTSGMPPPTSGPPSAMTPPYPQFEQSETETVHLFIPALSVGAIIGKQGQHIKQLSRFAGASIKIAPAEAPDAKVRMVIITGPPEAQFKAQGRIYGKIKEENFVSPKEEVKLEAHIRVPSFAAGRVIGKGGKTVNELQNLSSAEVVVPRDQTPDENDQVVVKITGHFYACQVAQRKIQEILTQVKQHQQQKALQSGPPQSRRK

Sequence	6-mer SELEX enrichment z-score
TATGGT	0.205
GCGCAG	0.042
CTCATT	0.836
AAAATC	-1.09
CTGACA	-0.082
CTTTAG	-0.066
TCCCAC	-0.746
CTAGTG	-0.197
TACCGC	-0.063
AGTTTG	-0.197
ACAGAA	1.07
CGAAGA	-1.15
AGTAGT	-0.089
ATAATT	0.442
TTACAA	0.278
GTTCAG	0.494
ATTGGG	0.034
TCATCC	0.656
GCATGA	1.02
CAATTT	0.371

Sequence	6-mer SELEX enrichment z-score
GGGTGG	0.495
ATTTCT	0.392
CACCGA	-0.466
CCTTTT	-0.037
GCAAGG	0.589
CTTTAT	0.283
GGTAGG	0.289
GATATG	-0.111
AATAAG	-0.374
GATCAA	0.372
GGGCTA	0.185
GGTATA	0.017
AAAGAA	-1.74
ATAGCG	-0.213
ACGTCA	0.15
GAAATG	-0.937
TGCGTC	0.445
TGTTGG	0.107
TGTAAG	-0.248
CGAGTC	0.037

Test system: IMP3 KH1-2
Experiment: as above
Conditions: construct: KH1-2 (164-376); SELEX round: R4
Method: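 SELEX-seq with GST-tagged IMP3 KH1-2 (Pro164-Phe376) and an N40 RNA pool, round 4 (stringent 300/600 mM KCl washes). 6-mer z-score of sequence-tag enrichment normalised to the corresponding GST SELEX round; RNA k-mers written as DNA (T for U).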

Sequence of IMP3 KH1-2 (chain, as listed by the source): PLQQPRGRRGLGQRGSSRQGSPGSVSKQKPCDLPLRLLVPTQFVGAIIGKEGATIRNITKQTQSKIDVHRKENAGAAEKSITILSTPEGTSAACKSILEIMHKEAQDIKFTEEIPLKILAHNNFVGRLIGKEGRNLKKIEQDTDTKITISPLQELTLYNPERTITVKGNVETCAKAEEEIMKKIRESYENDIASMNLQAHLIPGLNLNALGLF

Sequence	6-mer SELEX enrichment z-score
TATGGT	0.287
GCGCAG	-0.683
CTCATT	0.657
AAAATC	-0.425
CTGACA	0.247
CTTTAG	0.093
TCCCAC	-0.688
CTAGTG	-0.34
TACCGC	0.193
AGTTTG	-0.181
ACAGAA	1.64
CGAAGA	-0.861
AGTAGT	-0.183
ATAATT	1.82
TTACAA	1.37
GTTCAG	0.166
ATTGGG	0.006
TCATCC	0.323
GCATGA	0.48
CAATTT	1.09

Sequence	6-mer SELEX enrichment z-score
GGGTGG	0.807
ATTTCT	1.04
CACCGA	-1.18
CCTTTT	0.665
GCAAGG	0.271
CTTTAT	0.994
GGTAGG	0.323
GATATG	0.804
AATAAG	0.813
GATCAA	-0.065
GGGCTA	-0.039
GGTATA	0.081
AAAGAA	0.208
ATAGCG	-0.513
ACGTCA	-0.93
GAAATG	0.107
TGCGTC	-0.19
TGTTGG	0.058
TGTAAG	0.114
CGAGTC	-0.887

Test system: IMP3 KH3-4
Experiment: as above
Conditions: construct: KH3-4 (377-579); SELEX round: R4
Method: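 SELEX-seq with GST-tagged IMP3 KH3-4 (Pro377-Lys579) and an N40 RNA pool, round 4. 6-mer z-score of sequence-tag enrichment normalised to the corresponding GST SELEX round; RNA k-mers written as DNA (T for U).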

Sequence of IMP3 KH3-4 (chain, as listed by the source): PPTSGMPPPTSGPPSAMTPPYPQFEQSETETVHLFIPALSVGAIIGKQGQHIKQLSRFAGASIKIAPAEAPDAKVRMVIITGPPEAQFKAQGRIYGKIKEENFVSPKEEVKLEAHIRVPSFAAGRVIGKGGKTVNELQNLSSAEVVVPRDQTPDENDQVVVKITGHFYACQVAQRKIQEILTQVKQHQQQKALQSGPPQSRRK

Sequence	6-mer SELEX enrichment z-score
TATGGT	0.48
GCGCAG	-0.716
CTCATT	0.474
AAAATC	-0.286
CTGACA	-0.304
CTTTAG	0.218
TCCCAC	-1.52
CTAGTG	-0.261
TACCGC	-0.429
AGTTTG	-0.003
ACAGAA	1.46
CGAAGA	-0.568
AGTAGT	-0.043
ATAATT	2.91
TTACAA	1.52
GTTCAG	0.226
ATTGGG	0.192
TCATCC	-0.263
GCATGA	0.73
CAATTT	1.33

Sequence	6-mer SELEX enrichment z-score
GGGTGG	0.676
ATTTCT	1.01
CACCGA	-1.92
CCTTTT	0.632
GCAAGG	0.265
CTTTAT	1.33
GGTAGG	0.353
GATATG	1.42
AATAAG	1.92
GATCAA	0.145
GGGCTA	0.196
GGTATA	0.346
AAAGAA	1.9
ATAGCG	-0.16
ACGTCA	-0.92
GAAATG	1.06
TGCGTC	-0.104
TGTTGG	0.169
TGTAAG	0.491
CGAGTC	-0.973
